Data from patent US12116397B2, “IL-IR-I binding polypeptide” (Swedish Orphan Biovitrum AB (publ), priority 2017, dated 2024).

Target: T1, hIL-1R-I-Fc (Homo sapiens, UniProt P14778)
T1 construct: purchased Creative BioMart IL1 RI-771H
Test: EC50 analysis of Z variants by ELISA target titration
Assay type: binding
Details: periplasmic Z-ABD; hIL-1R-I-Fc 100 to 0.01 nM; first matured library (Example 4)
Procedure: (§1) A selection of IL-1R-I binding Z variants was subjected to an analysis of response against a dilution series of hIL-1R-1-Fc using ELISA as described above. The target protein hIL-1R-1-Fc was diluted stepwise 1:10 from 100 to 0.01 nM. As a background control, the Z variants were assayed with no target protein added. Obtained data was analyzed using GraphPad Prism 5 and non-linear regression, and the EC50 values (the half maximal effective concentration) were calculated.
as §1, with “calculated. A periplasmic extract with Z12967 (SEQ ID NO:9) was analyzed in parallel for signal comparison.” for “calculated.”
as §1, with “binding” for “binding Z variants”, “20” for “100”, “0.002” for “0.01”, “calculated. Periplasmic extracts with Z12967, Z16065 and Z16218 (corresponding to SEQ ID:9, 268 and 414, respectively) were analyzed in parallel for signal comparison. As negative control, a periplasmic extract of ABD001 was used.” for “calculated.”

T1 sequence (P14778 with tags, fused parts or gaps limits assumed): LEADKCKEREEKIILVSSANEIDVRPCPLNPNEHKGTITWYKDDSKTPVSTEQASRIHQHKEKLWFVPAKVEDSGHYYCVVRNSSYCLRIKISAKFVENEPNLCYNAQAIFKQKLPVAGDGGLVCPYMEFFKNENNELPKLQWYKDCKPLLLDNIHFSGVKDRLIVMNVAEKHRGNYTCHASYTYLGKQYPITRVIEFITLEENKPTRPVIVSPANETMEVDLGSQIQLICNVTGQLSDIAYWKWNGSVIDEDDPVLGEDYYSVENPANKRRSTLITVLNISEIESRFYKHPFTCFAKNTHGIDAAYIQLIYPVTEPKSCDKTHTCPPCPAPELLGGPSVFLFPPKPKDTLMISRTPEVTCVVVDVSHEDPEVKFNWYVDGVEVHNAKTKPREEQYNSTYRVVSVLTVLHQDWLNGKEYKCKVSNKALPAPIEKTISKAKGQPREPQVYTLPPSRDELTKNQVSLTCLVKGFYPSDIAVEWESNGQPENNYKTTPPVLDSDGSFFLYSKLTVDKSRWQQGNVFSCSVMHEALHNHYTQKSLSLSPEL

| Substance | EC50 |
| --- | --- |
| Z16388: IL-1R-I binding Z variant (VDAKYAKEHEDAYMEIYALPNLTRKQYTAFIRKLLDDPSQSSELLSEAKKLNDSQAPK; Engineered IL-1R-I binding polypeptide) | 0.29 nM |
| Z15811: IL-1R-I binding Z variant (VDAKYAKEVEEAQMEIFELPNLTRKQYTAFIRKLLDDPSQSSELLSEAKKLNDSQAPK; Engineered IL-1R-I binding polypeptide) | 0.25 nM |
| Z16263: IL-1R-I binding Z variant (VDAKYAKEAEKAYWEIYALPNLTRKQYTAFIRKLLDDPSQSSELLSEAKKLNDSQAPK; Engineered IL-1R-I binding polypeptide) | 0.26 nM |
| Z16264: IL-1R-I binding Z variant (VDAKYAKEVEVAYFEIFALPNLTRKQYTAFIRKLLDDPSQSSELLSEAKKLNDSQAPK; Engineered IL-1R-I binding polypeptide) | 0.3 nM |
| Z16405: IL-1R-I binding Z variant (VDAKYAKETEDAYFEIYHLPNLTRKQYTAFIRKLLDDPSQSSELLSEAKKLNDSQAPK; Engineered IL-1R-I binding polypeptide) | 0.36 nM |
| Z16046: IL-1R-I binding Z variant (VDAKYAKEIYSAQMEIFKLPNLTRKQYTAFIRKLFDDPSQSSELLSEAKKLNDSQAPK; Engineered IL-1R-I binding polypeptide) | 0.27 nM |
| Z16168: IL-1R-I binding Z variant (VDAKYAKEAVSAYWEIFALPNLTRRQYTAFIRKLLDDPSQSSELLSEAKKLNDSQAPK; Engineered IL-1R-I binding polypeptide) | 0.28 nM |
| Z17257: IL-1R-I binding Z variant (VDAKYAKEVEEAYMEIYGLPNLTRKQYTAFIRKLLDDPSQSSELLSEAKKLNDSQAPK; Engineered IL-1R-I binding polypeptide) | 0.48 nM |
| Z16135: IL-1R-I binding Z variant (VDAKYAKEVELAQHEIFQLPNLTRKQYTAFIRKLFDDPSQSSELLSEAKKLNDSQAPK; Engineered IL-1R-I binding polypeptide) | 0.25 nM |
| Z16003: IL-1R-I binding Z variant (VDAKYAKEVYIAQMEIYGLPNLTRKQYTAFIRKLFDDPSQSSELLSEAKKLNDSQAPK; Engineered IL-1R-I binding polypeptide) | 0.28 nM |
| Z17244: IL-1R-I binding Z variant (VDAKYAKEVEDAYFEIYRLPNLTRKQYTAFIRKLLDDPSQSSELLSEAKKLNDSQAPK; Engineered IL-1R-I binding polypeptide) | 0.42 nM |
| Z16122: IL-1R-I binding Z variant (VDAKYAKEAEDAYMEIYSLPNLTRRQYTAFIRKLLDDPSQSSELLSEAKKLNDSQAPK; Engineered IL-1R-I binding polypeptide) | 0.29 nM |
| Z17279: IL-1R-I binding Z variant (VDAKYAKEVEDAYFEIYYLPNLTRKQYTAFIRKLLDDPSQSSELLSEAKKLNDSQAPK; Engineered IL-1R-I binding polypeptide) | 0.28 nM |
| Z16164: IL-1R-I binding Z variant (VDAKYAKEVEEAYMEIYNLPNLTRKQYTAFIRKLLDDPSQSSELLSEAKKLNDSQAPK; Engineered IL-1R-I binding polypeptide) | 0.68 nM |
| Z16206: IL-1R-I binding Z variant (VDAKYAKEVEEAQMEIFNLPNLTRKQYTAFIRKLFDDPSQSSELLSEAKKLNDSQAPK; Engineered IL-1R-I binding polypeptide) | 0.45 nM |
| Z16321: IL-1R-I binding Z variant (VDAKYAKEIEEAQMEIYTLPNLTRKQYTAFIRKLLDDPSQSSELLSEAKKLNDSQAPK; Engineered IL-1R-I binding polypeptide) | 0.27 nM |
| Z17288: IL-1R-I binding Z variant (VDAKYAKEADAAYFEIYHLPNLTRKQYTAFIRKLLDDPSQSSELLSEAKKLNDSQAPK; Engineered IL-1R-I binding polypeptide) | 0.42 nM |
| Z16042: IL-1R-I binding Z variant (VDAKYAKEVEDAQMEIFGLPNLTRKQYTAFIRKLLDDPSQSSELLSEAKKLNDSQAPK; Engineered IL-1R-I binding polypeptide) | 0.24 nM |
| Z16312: IL-1R-I binding Z variant (VDAKYAKEVEKAQMEIFDLPNLTRKQYTAFIRKLLDDPSQSSELLSEAKKLNDSQAPK; Engineered IL-1R-I binding polypeptide) | 0.24 nM |

Now from value to substance:

| EC50 | Substance |
| --- | --- |
| 0.24 nM | Z16049: IL-1R-I binding Z variant (VDAKYAKEVEQAQMEIFSLPNLTRKQYTAFIRKLLDDPSQSSELLSEAKKLNDSQAPK; Engineered IL-1R-I binding polypeptide) |
| 0.23 nM | Z16070: IL-1R-I binding Z variant (VDAKYAKEIEEAQMEIYRLPNLTRKQYTAFIRKLFDDPSQSSELLSEAKKLNDSQAPK; Engineered IL-1R-I binding polypeptide) |
| 0.24 nM | Z15999: IL-1R-I binding Z variant (VDAKYAKEVEIAYMEIFHLPNLTRKQYTAFIRKLLDDPSQSSELLSEAKKLNDSQAPK; Engineered IL-1R-I binding polypeptide) |
| 0.22 nM | Z16011: IL-1R-I binding Z variant (VDAKYAKEIEVAQMEIFALPNLTRKQYTAFIRKLFDDPSQSSELLSEAKKLNDSQAPK; Engineered IL-1R-I binding polypeptide) |
| 0.23 nM | Z16106: IL-1R-I binding Z variant (VDAKYAKEVEDAQMEIFKLPNLTRKQYTAFIRKLFDDPSQSSELLSEAKKLNDSQAPK; Engineered IL-1R-I binding polypeptide) |
| 0.22 nM | Z16207: IL-1R-I binding Z variant (VDAKYAKEVEEAQMEIYNLPNLTRKQYTAFIRKLLDDPSQSSELLSEAKKLNDSQAPK; Engineered IL-1R-I binding polypeptide) |
| 0.24 nM | Z16236: IL-1R-I binding Z variant (VDAKYAKETEEAQMEIFNLPNLTRKQYTAFIRKLLDDPSQSSELLSEAKKLNDSQAPK; Engineered IL-1R-I binding polypeptide) |
| 0.23 nM | Z15824: IL-1R-I binding Z variant (VDAKYAKEIEEAQMEIFALPNLTRKQYTAFIRKLFDDPSQSSELLSEAKKLNDSQAPK; Engineered IL-1R-I binding polypeptide) |
| 0.23 nM | Z16034: IL-1R-I binding Z variant (VDAKYAKEVEEAQMEIFELPNLTRKQYTAFIRKLFDDPSQSSELLSEAKKLNDSQAPK; Engineered IL-1R-I binding polypeptide) |
| 0.24 nM | Z16054: IL-1R-I binding Z variant (VDAKYAKEAEVAYFEIYALPNLTRKQYTAFIRKLLDDPSQSSELLSEAKKLNDSQAPK; Engineered IL-1R-I binding polypeptide) |
| 0.23 nM | Z15987: IL-1R-I binding Z variant (VDAKYAKEVEEAQMEIYYLPNLTRKQYTAFIRKLLDDPSQSSELLSEAKKLNDSQAPK; Engineered IL-1R-I binding polypeptide) |

Same assay, conditions: periplasmic Z-ABD; hIL-1R-I-Fc 100 to 0.01 nM; primary selection (Example 1)

| EC50 | Substance |
| --- | --- |
| 7.3 nM | Z12905: IL-1R-I binding Z variant (VDAKYAKEARAAQGEIYALPNLTRRQYTAFIMKLLDDPSQSSELLSEAKKLNDSQAPK; Engineered IL-1R-I binding polypeptide) |
| 0.23 nM | Z12910: IL-1R-I binding Z variant (VDAKYAKEALSAQQEIFALPNLTRSQYTAFIRKLLDDPSQSSELLSEAKKLNDSQAPK; Engineered IL-1R-I binding polypeptide) |
